# Results from the supplement of paper PMC3334620.
# The full ranking holds about 33,000 sequences; the median of “E-score (-0.5 to 0.5)” is about -0.053, and the highest 2% start at about 0.37. Some of the results follow.
# Target: Hap1 (UniProt P0CE41)
# Assay: PBM E-score (8-mer binding enrichment) (E-score (-0.5 to 0.5)); higher = stronger / more preferred TF binding; most listed sequences are background and not binding sites
# Details: protein concentration: 200 nM; construct: GST-DNA-binding domain
# Outline: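 E-scores (a modified Wilcoxon-Mann-Whitney statistic) were assigned by the Universal PBM Analysis Suite to every ungapped eight-base word pooled with its reverse complement. The input came from universal all-10-mer Agilent arrays made double-stranded by primer extension and probed with GST-tagged yeast transcription factors at about 100-200 nM. Fluorescent anti-GST detected bound protein, and masliner normalised the scans.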
# UniProt P0CE41, sequence (P0CE41 whole entry): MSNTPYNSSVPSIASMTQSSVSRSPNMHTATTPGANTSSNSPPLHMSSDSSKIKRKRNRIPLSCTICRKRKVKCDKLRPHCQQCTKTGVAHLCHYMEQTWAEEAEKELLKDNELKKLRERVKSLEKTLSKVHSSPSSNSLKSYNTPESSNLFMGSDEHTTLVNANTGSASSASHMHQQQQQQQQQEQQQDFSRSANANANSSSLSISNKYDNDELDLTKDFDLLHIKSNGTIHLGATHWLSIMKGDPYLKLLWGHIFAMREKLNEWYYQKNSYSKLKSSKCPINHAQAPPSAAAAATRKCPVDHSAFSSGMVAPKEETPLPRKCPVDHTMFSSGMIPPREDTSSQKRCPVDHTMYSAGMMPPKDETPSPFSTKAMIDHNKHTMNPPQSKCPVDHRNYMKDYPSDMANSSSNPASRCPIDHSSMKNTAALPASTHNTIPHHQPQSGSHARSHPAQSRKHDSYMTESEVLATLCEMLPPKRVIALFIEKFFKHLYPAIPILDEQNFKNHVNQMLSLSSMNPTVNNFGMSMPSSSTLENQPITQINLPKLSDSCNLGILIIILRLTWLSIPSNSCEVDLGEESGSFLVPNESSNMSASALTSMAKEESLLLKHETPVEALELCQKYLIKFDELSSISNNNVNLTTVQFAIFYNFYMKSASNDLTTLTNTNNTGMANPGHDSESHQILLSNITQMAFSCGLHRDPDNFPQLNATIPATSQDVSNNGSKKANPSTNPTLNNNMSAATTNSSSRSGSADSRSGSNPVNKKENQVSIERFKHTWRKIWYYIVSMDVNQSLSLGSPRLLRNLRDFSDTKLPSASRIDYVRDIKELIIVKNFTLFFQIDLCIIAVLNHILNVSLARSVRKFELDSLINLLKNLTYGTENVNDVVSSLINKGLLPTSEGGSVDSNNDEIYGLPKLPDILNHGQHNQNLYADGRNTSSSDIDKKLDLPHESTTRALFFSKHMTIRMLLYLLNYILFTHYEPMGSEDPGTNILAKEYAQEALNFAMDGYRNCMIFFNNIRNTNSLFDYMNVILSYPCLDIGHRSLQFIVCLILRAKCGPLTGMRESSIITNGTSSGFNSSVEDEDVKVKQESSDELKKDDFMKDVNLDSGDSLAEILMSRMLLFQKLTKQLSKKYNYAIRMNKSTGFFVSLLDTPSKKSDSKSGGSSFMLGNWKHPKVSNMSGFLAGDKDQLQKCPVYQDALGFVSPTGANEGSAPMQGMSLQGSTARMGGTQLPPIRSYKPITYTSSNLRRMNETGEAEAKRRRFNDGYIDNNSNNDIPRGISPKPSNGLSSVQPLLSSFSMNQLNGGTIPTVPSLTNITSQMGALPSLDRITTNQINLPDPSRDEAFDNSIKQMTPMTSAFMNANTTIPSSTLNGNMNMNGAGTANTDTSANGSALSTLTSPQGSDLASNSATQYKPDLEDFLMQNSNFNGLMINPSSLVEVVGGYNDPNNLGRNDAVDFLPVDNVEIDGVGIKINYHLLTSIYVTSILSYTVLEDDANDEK
row,Sequence,PBM E-score
1,CCCCAGCG,-0.0863
2,CACTCGGG,0.159
3,AGGTGCTG,-0.13
4,AAAATTAG,-0.00754
5,AACGAGAC,-0.0865
6,CATACAAA,0.0392
7,ATTGCGCG,0.224
8,GACACGGC,0.183
9,GGAAGCAA,0.0931
10,ATCATTTA,-0.016
11,CATAAGGC,-0.0459
12,ACCTAATC,-0.0221
13,AAAGATAT,0.093
14,GAATGCCC,0.0594
15,ATGTGGAG,-0.0382
16,CACGCCCG,0.281
17,CCAGATTC,0.0428
18,TCGCAGCA,-0.195
19,GAAACATC,-0.0136
20,CTGACCAG,-0.142
21,ATAGACGG,0.11
22,AGCGAGAG,-0.0312
23,AGTAGAGG,-0.298
24,TAACTGTA,-0.343
25,AGTTACGC,-0.125

row,Sequence,PBM E-score
1,GCCACGAC,0.1
2,ATTGGAAC,-0.124
3,AATGACCT,-0.103
4,GTGTGGAA,-0.0715
5,CCATGGAA,-0.178
6,CTCTGTTA,0.0174
7,CTACATCA,0.0111
8,TAGTATCA,0.0451
9,GAAAGGAA,0.187
10,AGGTGATG,-0.225
11,GCACTGTA,-0.142
12,CTCTAATA,-0.1
13,ACCTCGTG,-0.132
14,AACAGCCA,-0.0921
15,AAACTGAA,-0.0118
16,ACGACCGG,0.292
17,ACTTATTG,-0.145
18,AAGGGTTC,-0.121
19,ATTATGTG,0.0607
20,ATGTCGTC,-0.0753
21,ACTTCGCC,0.264
22,CGAGTTCA,-0.134
23,AAGGATAC,-0.124
24,GGGCCTAA,-0.0132
25,CCTTTACA,-0.15

row,Sequence,PBM E-score
1,CCACGATA,-0.00906
2,GCCCTGCA,-0.21
3,CGGCTGTA,0.311
4,CTCCTGAA,0.0126
5,AGACGTAA,-0.14
6,AACCGAAG,0.226
7,AAGATACC,0.0509
8,GGATAGAA,0.126
9,CCTGCGAG,-0.109
10,GCTAGACA,-0.0458
11,ACAGGCTA,-0.188
12,TGATTAAA,-0.0498
13,ACCGAGAT,0.287
14,ATTTTAAG,-0.0463
15,AAGGGCGT,-0.0867
16,AGGTAACG,0.125
17,CATTTTCG,0.163
18,CACTCTCG,0.173
19,CGCCCAAG,-0.213
20,TCGAATAA,-0.0975
21,CCAGACAC,-0.313
22,CTCGGTCC,0.35
23,CGGTTACA,0.303
24,CGTGATAG,-0.156
25,CATTACCC,0.06

row,Sequence,PBM E-score
1,CATCGCCC,0.128
2,CTAAACTA,-0.17
3,CAGGATAG,-0.103
4,AGGTGCCC,-0.105
5,CAAACTAG,-0.315
6,ATGAACAT,-0.149
7,GAACAGTC,-0.105
8,ATCTTGGC,-0.164
9,AGAAAGAG,-0.192
10,CCCGTTTC,0.19
11,ATGTGTGA,-0.0479
12,ATCTTTCC,0.131
13,GATACGTA,-0.0228
14,AAGTAATC,0.0821
15,CCATGCCA,-0.139
16,AGTGAAAG,-0.184
17,CAAGGTCA,-0.214
18,ATTCTCGC,-0.173
19,AGGAGCTG,-0.0348
20,AAGGGCGA,0.043
21,TCCAGGGA,-0.372
22,CACACTCC,-0.104
23,ACAGGGCG,-0.00027
24,ATCCCGTG,0.199
25,AACATATC,0.192

row,Sequence,PBM E-score
1,CGGGAGAC,0.216
2,GCTCGGGA,0.286
3,ATCCATTG,-0.138
4,GGCATGGA,0.0822
5,AGCGCCAG,-0.0224
6,CTGAATGC,-0.126
7,ACTCAGGC,-0.122
8,CCTGTCAA,-0.202
9,AGCACCCT,-0.214
10,GTTATGTA,0.0817
11,GTGTTCTA,-0.0276
12,ACGGCGTA,-0.148
13,ATTTGAGA,-0.134
14,AAGGAACC,0.159
15,AAAAGTAT,-0.0239
16,AATCAACC,-0.0544
17,AGAAGTGC,-0.0776
18,AGCAAGCT,-0.382
19,CTAAGAGC,-0.0334
20,AACCTCGA,-0.0671
21,ACTCACCA,-0.109
22,ACGCTGAG,-0.144
23,AAAATACC,0.138
24,AAGACCCC,0.0634
25,TAATGGAA,0.0291

row,Sequence,PBM E-score
1,CGAATCAC,0.123
2,ATCAGTTA,-0.0403
3,AGGTGGAT,-0.159
4,ACGATGAT,-0.164
5,CTTTTCTA,-0.242
6,CTTCTAAA,-0.113
7,TAGACTGA,-0.123
8,CGATCCAG,-0.0468
9,GTTCGGCA,0.125
10,TCCGCACA,0.139
11,CGTGGCGA,0.00589
12,ATAAAAAA,0.0729
13,AACGTTAG,0.0118
14,GGGTACTA,0.0263
15,CACTCCTA,-0.0848
16,CTAAATTC,0.0663
17,CGGTTCAC,0
18,GACTAAGA,0.0555
19,AAGACGTA,-0.164
20,AAGCGGAT,0.245
21,ATGAGGTA,-0.143
22,CGGAAGCC,0.199
23,GCAACATA,-0.139
24,AGTGGCGA,0.0958
25,GTGTCTGA,-0.212

row,Sequence,PBM E-score
1,GCGAAGAA,-0.0486
2,GTGTCCTA,-0.0863
3,ATTCCACG,0.00865
4,TGACACCA,-0.258
5,GCCTAAAC,-0.165
6,ATGGCCGA,0.359
7,GGCGGCAA,0.114
8,TCGGGTAA,0.124
9,CGGCCTGC,0.0613
10,AGCGCGTG,-0.0591
11,GCGGAGAC,0.348
12,AGTAGTGC,0.078
13,AACCGCGA,0.196
14,AGGGCGAC,-0.0507
15,GGGATGAC,0.111
16,CGTCATAG,-0.0979
17,GAACATAA,0.0853
18,TCACCGCA,0.0366
19,CCAGCTGG,-0.112
20,AAGCCGAC,0.298
21,AGGCCCAC,-0.318
22,AACTTGGA,-0.0991
23,CCACCTCC,-0.00752
24,ACTTCCGA,0.31
25,CGTTCAGC,-0.12

row,Sequence,PBM E-score
1,GAATACGC,0.0229
2,ACCGTCAA,-0.0051
3,ACGATGCA,-0.108
4,ATAGTAGA,-0.0574
5,ACTGTTGA,-0.17
6,AGTATCTG,-0.118
7,TATATGAA,-0.0659
8,GAGGTATA,-0.122
9,ATGTTCAA,0.123
10,CGTGGTTA,-0.251
11,CCGCCTTA,-0.0179
12,CCGCACGG,0.191
13,CAGGTTGG,-0.115
14,ACAATGCA,-0.0452
15,CGAAAGCC,0.15
16,AGTACTAA,-0.0628
17,AAGTTCCT,-0.0383
18,AAGACACG,0.0021
19,AGTCCGTC,0.325
20,AGATTCCA,-0.0282
21,GCAGAATA,0.0458
22,CAACTCAC,-0.213
23,ACGAGCCC,-0.133
24,AGGATATG,0.0112
25,ATTCTATG,-0.155

row,Sequence,PBM E-score
1,ATACCGAA,0.296
2,TGAACAAA,0.0224
3,ATACGGGC,0.168
4,CAGTCTGG,-0.305
5,AGCGCGGA,0.223
6,CTTTGCCC,-0.168
7,ACGCACTA,-0.157
8,CCCCTGAA,-0.166
9,ATGTATGG,-0.238
10,AGACCCCC,-0.0514
11,ATCTATTA,-0.0002
12,CATCCAAG,-0.197
13,GCTAGTTA,-0.113
14,AGCACGAT,-0.101
15,CCTTCAAG,-0.253
16,AAGGGTAG,-0.173
17,AAGTTCAT,0.0764
18,CACGTTGC,-0.165
19,AGGGAGTA,-0.277
20,GGACCCCC,0.0704
21,GAGCGCGC,0.174
22,AGGCGGCC,0.0302
23,AGGTCGAC,-0.113
24,ACTTGCAC,-0.0854
25,AGACCACC,-0.246

row,Sequence,PBM E-score
1,AAACGTAT,-0.0146
2,ACTGGCAA,-0.078
3,ACCGTAAA,0.0865
4,AAATGTGG,0.038
5,GCGCAAAA,-0.00131
6,TCTGGCCA,-0.255
7,ATGGGGCG,-0.0621
8,ATCGACGC,-0.0158
9,AGAACTGA,-0.269
10,CCTTAGCA,-0.0286
11,GCGATACC,0.192
12,GGCCAGAC,0.0273
13,GGATTAAA,0.267
14,GCGGTTGA,0.12
15,ATTTAGTA,0.102
16,TATACGAA,-0.02
17,GGCCAACC,0.123
18,ACACTCCT,-0.112
19,AATGATAA,0.0423
20,AATTCCAC,0.192
21,GCGCCCGC,0.0873
22,GCGATCCC,-0.0261
23,TCAATTGA,-0.079
24,CATCGGTC,0.278
25,CCAGCGCG,0.0332

row,Sequence,PBM E-score
1,GCAAGAAC,-0.0934
2,CAGAGATG,-0.157
3,CATCTTCA,-0.236
4,CCTGACTC,-0.122
5,GCCCATCA,-0.13
6,AGACCTTC,-0.136
7,AACTGAAA,-0.042
8,CCCAAGAC,-0.0714
9,CTCTCGCA,-0.179
10,AAATATGG,-0.156
11,CTTGGGCC,0.0626
12,ATCAAGGG,-0.0602
13,CAGGATTA,-0.0384
14,GTATCAAC,0.0629
15,CGAGCACC,0.0226
16,ACGACGAT,0.1
17,TACGCATA,-0.0325
18,CTTGTCGC,0.0871
19,TATCGAAA,0.0242
20,ACTGAGAT,-0.257
21,AACTAAAG,-0.114
22,AGGGAACA,-0.122
23,CGGCCGGA,0.436
24,TCTAACCA,-0.115
25,CCTACAGC,0.0103

row,Sequence,PBM E-score
1,AAACATTA,-0.187
2,CCGCTTAG,0.0499
3,CCCACAGG,-0.119
4,AAGTCAAA,-0.159
5,AAGCACGG,0.0605
6,TGAGGACA,-0.297
7,GCTCGCAC,0.112
8,CCCTTGTA,-0.115
9,TAGGCACA,-0.204
10,GTGATTTA,0.0429
11,TCCGGGAA,0.376
12,CAGAGATC,-0.108
13,AATTTTTG,-0.144
14,AATCGTGG,-0.179
15,CCCTCACG,-0.262
16,GCATGCCC,0.0863
17,AAAAGGAG,-0.0328
18,GGGTTGAC,-0.187
19,AGACGACG,-0.011
20,ATCCAGTA,0.00689
21,CAGAAATA,-0.0924
22,AACGGCAC,0.0718
23,CTCCGAAG,0.401
24,GAGCTCGA,-0.1
25,ATGCCCTC,-0.0254

row,Sequence,PBM E-score
1,CTACAGAA,-0.23
2,ATCATCGC,0.0926
3,CCTTTGTC,-0.0255
4,AACGCTTC,-0.0716
5,AACCACCA,-0.0905
6,CTAAAGAA,-0.0447
7,ACCGCGGG,0.252
8,AGCCGCAT,-0.0279
9,CTCTAGAC,-0.291
10,ACATACTA,-0.119
11,ATGAAAAG,-0.221
12,CACCATTA,0.0208
13,ACTGCTTA,-0.199
14,CATCTCGG,0.344
15,ATATGACG,0.0575
16,ACCACAGA,-0.112
17,AAATCGTC,0.0943
18,AGAGCCAG,-0.363
19,ACGACAAC,0.00097
20,ATGTGAAC,-0.117
21,AGCGCTTA,0.136
22,TAAATTAA,0.0905
23,ATTGCACC,-0.0142
24,CCTTGATA,-0.214
25,ATATTAAT,0.102

row,Sequence,PBM E-score
1,ATCTAGCA,-0.136
2,GGCGCTTA,0.119
3,ATATCTGC,0.105
4,ACGTCCCT,-0.295
5,ACGATAAA,0.0913
6,AGAGGCTG,-0.301
7,AAAGTAGG,-0.00922
8,GTTGACTA,-0.0897
9,ACATGTAA,-0.0805
10,AACTCTCT,-0.133
11,GCCTTGGA,-0.181
12,ACTGCCCG,0.0132
13,CTCAAACA,-0.0418
14,TAGGCCCA,-0.229
15,ACCACATC,-0.00509
16,ATGTTGAG,-0.113
17,AACTTTGG,-0.171
18,GCAATTCC,0.127
19,AACAGGTG,-0.158
